Reference: patent publication US20210054071A1 (NANJING LEGEND BIOTECH, published 2021)

T1: human TIGIT-His protein (Acrobiosystems) (human, UniProt Q495A1 22-141)
T1 construct: Bought; Genbank NP_776160
T1 sequence: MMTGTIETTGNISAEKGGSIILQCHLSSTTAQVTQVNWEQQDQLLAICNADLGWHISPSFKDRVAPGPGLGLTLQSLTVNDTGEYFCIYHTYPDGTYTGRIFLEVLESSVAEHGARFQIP

T2: mouse TIGIT-His protein (Acrobiosystems) (mouse, UniProt P86176 29-148, limits assumed)
T2 construct: bought
T2 sequence (looked up): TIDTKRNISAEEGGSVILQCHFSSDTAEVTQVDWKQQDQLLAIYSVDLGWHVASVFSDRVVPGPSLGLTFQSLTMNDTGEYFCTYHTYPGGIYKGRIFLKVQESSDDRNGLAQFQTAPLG

T3: TIGIT on TIGIT effector cells (UniProt Q495A1 22-244, limits assumed)
T3 sequence (looked up): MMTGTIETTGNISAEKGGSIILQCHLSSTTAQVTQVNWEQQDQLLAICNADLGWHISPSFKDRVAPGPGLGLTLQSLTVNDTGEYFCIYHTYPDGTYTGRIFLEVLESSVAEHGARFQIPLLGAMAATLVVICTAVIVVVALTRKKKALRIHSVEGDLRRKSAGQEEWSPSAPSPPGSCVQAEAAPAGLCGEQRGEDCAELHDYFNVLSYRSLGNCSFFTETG

T4: human TIGIT expressed on CHO-K1 cells (human, UniProt Q495A1 22-244)
T4 construct: also called CHO/human TIGIT cells; CHO-TIGIT cells
T4 sequence: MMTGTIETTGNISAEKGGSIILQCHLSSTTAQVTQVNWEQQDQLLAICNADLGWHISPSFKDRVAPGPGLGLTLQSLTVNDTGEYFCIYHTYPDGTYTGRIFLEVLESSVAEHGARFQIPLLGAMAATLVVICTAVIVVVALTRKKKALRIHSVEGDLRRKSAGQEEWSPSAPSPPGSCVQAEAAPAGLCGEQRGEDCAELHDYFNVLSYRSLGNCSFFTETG


Legend:
[1] = target: T1, human TIGIT-His protein (Acrobiosystems); experiment: SPR as in Example 2
[2] = target: T2, mouse TIGIT-His protein (Acrobiosystems); experiment: SPR as in Example 2
[3] = target: T3, TIGIT on TIGIT effector cells; experiment: cell-based or functional assay
[4] = target: T3, TIGIT on TIGIT effector cells; experiment: cell-based or functional assay; remark: listed apart in the source
[5] = target: T4, human TIGIT expressed on CHO-K1 cells; experiment: FACS, CHO-K1 cells expressing human TIGIT
[6] = target: T5, cynomolgus TIGIT expressed on CHO-K1 cells (cynomolgus, UniProt A0A7N9I9V4 89-312); experiment: FACS, CHO-K1 cells expressing cynomolgus TIGIT
T5 construct: whole, on cells

[7] = target: T1, human TIGIT-His protein (Acrobiosystems); experiment: SPR (BIAcore T200), target amine-coupled to CM5 chip
[8] = target: T6, cynomolgus TIGIT-His protein (Acrobiosystems) (cynomolgus, UniProt A0A7N9I9V4 89-209); experiment: as above
T6 construct: bought

[9] = target: T2, mouse TIGIT-His protein (Acrobiosystems); experiment: as above
[10] = target: T4, human TIGIT expressed on CHO-K1 cells; experiment: FACS competition, biotinylated CD155-Fc on CHO/human TIGIT cells
[11] = target: T3, TIGIT on TIGIT effector cells; experiment: cell-based or functional assay; remark: listed apart in the source
[12] = target: T4, human TIGIT expressed on CHO-K1 cells; experiment: FACS, CHO-K1 cells expressing human TIGIT; remark: listed apart in the source
[13] = target: T5, cynomolgus TIGIT expressed on CHO-K1 …; experiment: FACS, CHO-K1 cells expressing cynomolgus TIGIT; remark: listed apart in the source
[14] = target: T1, human TIGIT-His protein (Acrobiosystems); experiment: SPR (BIAcore T200), target amine-coupled to CM5 chip; remark: listed apart in the source
[15] = target: T6, cynomolgus TIGIT-His protein …; experiment: as above; remark: listed apart in the source
[16] = target: T4, human TIGIT expressed on CHO-K1 cells; experiment: FACS competition, biotinylated CD155-Fc on CHO/human TIGIT cells; remark: listed apart in the source

Binder	Kd [1] [nM]	Kd [2] [nM]	IL-2 release assay EC50 [3] [nM]	Reporter assay EC50 [3] [nM]	TIGIT Reporter assay EC50 [4] [nM]	EC50 [5] [nM]	EC50 [6] [nM]	Kd [7] [nM]	koff [7] [s⁻¹]	kon [7] [M⁻¹ s⁻¹]	Kd [8] [nM]	koff [8] [s⁻¹]	kon [8] [M⁻¹ s⁻¹]	EC50 [10] [nM]	TIGIT/CD155 blockade reporter assay, EC50 [11] [nM]	TIGIT/CD155 blockade reporter assay, Signal span [11]	EC50 [12] [nM]	EC50 [13] [nM]	Kd [14] [nM]	koff [14] [s⁻¹]	further results
AS19584VH28 sdAb-Fc (IgG1) fusion protein (Fc fusion, humanized sdAb fused to human IgG1 Fc, dimeric form; also called AS19584VH28-Fc; AS19584VH28 (IgG1)) EVQLVESGGGLVQPGGSLRLSCAASGYKYGVYSMGWFRQAPGKGLEGVSAICSGGRTTYSDSVKGRFTISRDNSNQILYLQMNSLRAEDTAVYYCAARPLWTGDCDLSSSWYKTWGQGTLVTVSS[human IgG1 Fc not written out]	0.29	1	0.818	2.12	3.12	0.432	1.02	0.29	0.00021	730000	34	0.012	340000	1.65	–	–	–	–	–	–	Kd [9]: 0.78 nM; koff [9]: 0.00049 s⁻¹; kon [9]: 620000 M⁻¹ s⁻¹
AS19886VH5 sdAb-Fc (IgG1) fusion protein (Fc fusion, humanized sdAb fused to human IgG1 Fc, dimeric form; also called AS19886VH5-Fc) EVQLVESGGGLVQPGGSLRLSCAASGYTYSRKCRGWFRQAPGKGLEGVATLYTSSGGTYFDTYADSVRGRFTISRDNSKNTVYLQMNSLRAEDTGVYYCAARLSTDFCGPRADFDYWGQGTLVTVSS[human IgG1 Fc not written out]	–	–	3.15	3.54	–	0.657	2.06	2.9	0.0016	550000	280	0.027	95000	2.82	–	–	–	–	–	–	–
AS19886VH8 sdAb-Fc (IgG1) fusion protein (Fc fusion, humanized sdAb fused to human IgG1 Fc, dimeric form; also called AS19886VH8-Fc) EVQLVESGGGLVQPGGSLRLSCAASGYTYSRKCRGWFRQAPGKGLEGVATLYTSSGGTYFDTYADSVRGRFTISQDNSKNTLYLQMNSLRAEDTAVYYCAARLSTDFCGPRADFDYWGQGTLVTVSS[human IgG1 Fc not written out]	–	–	5.85	3.27	–	0.676	2.28	2.4	0.0017	730000	160	0.023	140000	2.49	–	–	–	–	–	–	–
AS19886 sdAb-Fc (IgG1) fusion protein (Fc fusion, dimeric form, human IgG1 Fc; also called AS19886-Fc; A519886-Fc) QVQLVESGGGSVQAGGSLRLSCVASGYTYSRKCRGWFRQAPGKEREGVATLYTSSGGTYFDTYADSVRGRFTISQDNAKNTVYLQMNNLKPEDSGIYYCAARLSTDFCGPRADFDYWGQGTQVTVSS[human IgG1 Fc not written out]	–	–	2.64	3.16	–	0.541	1.35	2.6	0.0023	880000	76	0.011	140000	2.38	3.04	102	0.34	1.17	1.9	0.0019	kon [14]: 1e+06 M⁻¹ s⁻¹; Kd [15]: 82 nM; koff [15]: 0.016 s⁻¹; kon [15]: 190000 M⁻¹ s⁻¹; EC50 [16]: 0.643 nM
AS20160 sdAb-Fc (IgG1) fusion protein (Fc fusion, dimeric form, human IgG1 Fc; also called AS20160-Fc; A520160-Fc) EVQLAESGGGSVQAGGSLRLSCTTSGYTYSRNCMGWFRQAPGKEREGVATIYVSAASTSFATYADSVKGRFTISLDKAKNTVYLQMNSLKPEDTAMYYCAADPPDRISNPCGPRRPDFGYWGQGTQVTVSS[human IgG1 Fc not written out]	–	–	–	–	–	–	–	–	–	–	–	–	–	–	5.46	88.8	0.876	14.5	2.7	0.0019	kon [14]: 680000 M⁻¹ s⁻¹; Kd [15]: 200 nM; koff [15]: 0.025 s⁻¹; kon [15]: 130000 M⁻¹ s⁻¹; EC50 [16]: 1.18 nM
AS19584VH28 sdAb-Fc (IgG4) fusion protein (Fc fusion, dimeric form, human IgG4 Fc; also called AS19584VH28 (IgG4); AS19584VH28 IgG4) EVQLVESGGGLVQPGGSLRLSCAASGYKYGVYSMGWFRQAPGKGLEGVSAICSGGRTTYSDSVKGRFTISRDNSNQILYLQMNSLRAEDTAVYYCAARPLWTGDCDLSSSWYKTWGQGTLVTVSS[human IgG4 Fc with S228P (EU numbers) not written out]	0.68	1.1	–	–	4.06	–	–	–	–	–	–	–	–	–	–	–	–	–	–	–	–

Like-named read-outs stand apart in the source and are kept apart here.
